# From the supplement of paper PMC12217912
# Some of the results follow. The full chains were built here from the parent and the listed change. Values near 0.05 are background.
# B1: TEV protease; numbered along this chain (parent)
# chain: MGESLFKGPRDYNPISSSICHLTNESDGHTTSLYGIGFGPFIITNKHLFRRNNGTLVVQSLHGVFKVKDTTTLQQHLVDGRDMIIIRMPKDFPPFPQKLKFREPQREERICLVTTNFQTKSMSSMVSDTSCTFPSGDGIFWKHWIQTKDGQCGSPLVSTRDGFIVGIHSASNFTNTNNYFTSVPKNFMELLTNQEAQQWVSGWRLNADSVLWGGHKVFMVKPEEPFQPVKEATQL
# Variants of: B1
# Test: raw area under fraction-flipped curve 0-4 h after induction (AUC4h, not background-subtracted), DNA-recorder readout of cleavage of the substrate (dimensionless); higher = more cleavage of the substrate by the protease variant
# Conditions: temperature: 34 °C; time window: 0-4 h after rhamnose induction
# Description: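 In vivo DNA recorder in E. coli TOP10(DE3) ΔrhaA at 34 °C. Each TEVp single-site mutant (parent TEVp 0) is paired with a single-site variant of the 7-mer TEVs (canonical ENLYFQ|S). The substrate sits between flexible linkers in a Bxb1-sfGFP-TEVs-SsrA fusion, so cleavage stabilises Bxb1 and speeds flipping of a recombination array, read by NGS. The value is the raw area under the fraction-flipped curve over 0-4 h after rhamnose induction (AUC4h), with ≥20 reads per time point. It is not background-subtracted; inactive controls average about 0.047.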
# 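Note: Bxb1 expression induced with 0.2% (w/v) L-rhamnose at OD600 near 0.5, cultures sampled hourly, flipped fraction per protease–substrate barcode pair counted by paired-end Illumina sequencing.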
Variant,area with substrate EALYFQS,area with substrate ECLYFQS,area with substrate EHLYFQS,area with substrate EILYFQS,area with substrate EPLYFQS,area with substrate EQLYFQS,area with substrate ERLYFQS,area with substrate ESLYFQS,area with substrate ETLYFQS,area with substrate EVLYFQS,area with substrate EWLYFQS,area with substrate EYLYFQS,area with substrate EELYFQS,area with substrate EFLYFQS,area with substrate EGLYFQS,area with substrate EKLYFQS,area with substrate EDLYFQS,area with substrate ELLYFQS,area with substrate EMLYFQS
L211C,0.126,0.105,0.123,0.098,0.127,0.127,0.107,0.0979,0.154,0.0977,0.094,0.0981,–,–,–,–,–,–,–
L211V,0.108,0.1,–,0.0759,0.118,0.124,0.109,–,–,–,–,0.102,0.147,0.144,–,–,–,–,–
F187N,0.0386,0.0496,0.0619,0.0479,–,0.0386,–,0.0578,0.0451,0.0507,0.0676,–,–,–,0.0905,0.0537,–,–,–
F187C,0.143,–,–,–,–,0.135,–,–,–,0.0755,–,–,–,–,–,–,–,–,–
E195F,0.12,0.0982,0.093,0.0934,–,0.108,0.0985,0.101,–,0.0877,0.0814,–,–,–,0.0843,0.103,0.115,0.0981,0.1
A196H,0.104,0.106,–,0.0977,0.0864,0.118,0.098,0.128,–,0.0821,–,–,0.118,–,–,0.0736,–,0.0373,0.14
A196M,0.127,0.0931,–,0.109,–,0.148,0.15,0.112,0.129,0.138,0.103,0.14,0.127,0.11,0.116,0.102,–,0.102,0.146
A196I,0.134,0.0791,0.115,0.0823,0.11,0.115,0.112,0.1,0.123,0.0939,0.0967,0.117,0.127,–,0.107,0.0909,0.118,–,0.107
A196Q,0.137,0.0963,–,–,0.134,0.143,0.121,0.115,–,–,–,–,–,0.0658,–,0.1,–,–,0.0885
W212D,0.156,–,–,–,0.059,0.0566,0.0567,–,–,0.0617,–,0.0811,0.0735,–,0.0562,0.066,0.0681,0.0547,0.0755
S182A,0.146,0.136,–,–,–,–,–,0.0992,0.151,–,–,–,–,–,–,0.134,–,–,–
F173I,0.109,0.097,0.0957,0.0977,0.111,0.077,0.0856,0.114,0.104,0.115,0.138,–,0.133,0.12,–,0.0967,0.131,0.136,–
F173S,0.0835,–,0.0741,0.102,–,–,0.0853,0.0626,0.0827,0.0907,0.112,0.0584,0.088,0.111,0.0734,–,0.114,0.0665,0.0956
V165S,0.0529,0.0459,0.0526,–,–,0.0739,0.0371,0.0437,–,0.0449,0.0526,0.0413,0.0564,0.0448,0.0571,0.0525,–,0.0383,0.0477
V165F,0.0445,0.0541,0.0532,0.0462,–,0.0301,–,0.0552,0.0571,–,–,0.0397,–,–,–,–,0.0541,–,0.0738
D149K,0.115,0.0836,0.059,0.0683,–,0.103,0.0818,0.0801,–,0.071,0.0776,0.0814,–,0.0689,–,0.077,0.0983,0.049,0.103
D149N,0.1,0.146,–,0.0603,0.122,–,–,0.0755,0.111,0.0944,0.0843,0.105,0.0886,–,0.0709,0.117,0.104,–,0.112
K148I,0.105,–,–,0.119,0.138,0.0839,0.0943,0.106,0.14,0.0941,–,–,0.11,–,–,–,–,–,0.105
K148P,0.0818,0.085,–,0.0647,–,0.0786,–,0.0787,–,0.0741,0.0677,–,–,–,0.0777,0.071,0.0906,0.0858,0.0794
G166N,0.052,0.0417,–,0.0284,0.0673,0.043,–,–,–,–,–,0.0412,0.0569,–,–,0.0455,–,–,0.0495
G213M,0.0316,0.0594,0.0492,0.0634,–,0.0715,0.0611,0.0623,–,0.0506,0.0512,0.0777,0.07,–,0.0561,0.0681,0.0748,0.0521,–
R160H,0.0913,0.0727,–,–,–,–,0.087,0.096,–,0.0849,0.0892,0.0965,0.135,–,0.0967,0.14,–,–,0.129
K185I,0.157,0.109,–,0.113,0.134,0.101,–,0.108,0.0992,–,0.112,0.115,–,0.111,0.0935,0.106,–,–,0.0973
K185E,0.163,0.117,–,0.0987,0.15,0.196,0.142,–,–,0.112,0.142,0.0988,0.153,0.135,0.124,–,–,0.137,–
K185F,0.109,0.122,0.0904,0.0617,0.127,0.124,0.0912,0.124,–,0.0953,0.109,0.132,0.132,–,0.0834,0.114,–,0.0926,0.109
N175M,0.0578,0.133,–,0.0781,0.11,0.0953,0.0749,0.0804,–,0.0882,0.0932,–,–,0.0644,0.0756,0.0834,–,0.0793,0.0388
N175T,0.0649,0.0619,–,–,0.0645,–,0.087,0.0575,–,0.0595,–,–,–,–,–,0.0528,0.0594,–,–
I164W,0.0672,0.0454,0.0585,0.055,–,0.0569,0.0592,–,–,–,0.0586,–,–,–,0.0631,–,0.0535,0.0553,0.0626
